# The supplement of paper PMC7826260
# This is one part of the list. Viral Rep nickase domains cut single-stranded DNA in vitro (3 µM enzyme, 1 h, 37 °C); shown is the middle of each 90-letter strand. Values are log2 of uncut reads against the no-enzyme pool; more negative means more cut, near 0 not cut, and no call is made. Shares of all reads are compared, so uncut sequences can rise above 0 when many others are cut.
# Experiments:
# Assay in all cases: uncleaved DNA left, log2 of reads against the no-enzyme library (log2 ratio); higher = less cleavage (more negative = more Rep cleavage of the k-mer); sequences stand for … in CTCGTCCG…ACCGGAGA
# [1] = test system: T1, Rep nickase domain of Muscovy duck circovirus
# T1 sequence (residues 1-111 of Rep, tag left off): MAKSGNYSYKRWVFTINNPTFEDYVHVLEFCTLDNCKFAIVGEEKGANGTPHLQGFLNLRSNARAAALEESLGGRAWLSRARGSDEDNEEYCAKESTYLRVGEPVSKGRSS
# Procedure: (§1)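 A pool of 90-nt single-stranded DNAs with seven random bases just before the constant AC of the nick site (name = the seven bases) was cut by 3 µM recombinant His6-SUMO-tagged Rep nickase domain (300 nM DNA, 50 mM HEPES pH 8.0, 50 mM NaCl, 1 mM MnCl2, 1 h, 37 °C, three replicates). Uncut DNA was amplified and sequenced.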
# [2] = test system: T2, Rep nickase domain of banana bunchy top virus
# T2 sequence (residues 1-94 of Rep, tag left off): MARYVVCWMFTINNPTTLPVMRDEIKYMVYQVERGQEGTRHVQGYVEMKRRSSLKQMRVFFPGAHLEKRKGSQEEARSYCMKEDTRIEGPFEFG
# Procedure: as §1
# [3] = test system: T3, Rep nickase domain of cabbage leaf curl virus
# T3 sequence (residues 1-116 of Rep, tag left off): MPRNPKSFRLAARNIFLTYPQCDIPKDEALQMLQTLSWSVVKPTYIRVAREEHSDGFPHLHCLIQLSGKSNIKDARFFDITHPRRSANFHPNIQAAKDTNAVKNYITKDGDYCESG
# Procedure: as §1
# [4] = test system: T4, Rep nickase domain of chickpea chlorotic dwarf virus
# T4 sequence (residues 1-124 of Rep, tag left off): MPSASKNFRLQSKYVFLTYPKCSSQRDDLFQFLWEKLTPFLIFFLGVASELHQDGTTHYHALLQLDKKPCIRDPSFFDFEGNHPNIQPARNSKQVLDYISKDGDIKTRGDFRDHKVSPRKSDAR
# Procedure: as §1
# [5] = test system: T5, Rep nickase domain of faba bean necrotic yellows virus
# T5 sequence (residues 1-98 of Rep, tag left off): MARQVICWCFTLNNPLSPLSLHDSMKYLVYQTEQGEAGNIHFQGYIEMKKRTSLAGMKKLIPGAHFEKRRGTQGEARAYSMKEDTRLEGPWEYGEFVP
# Procedure: as §1
# [6] = test system: T6, Rep nickase domain of maize striate mosaic virus
# T6 sequence (residues 1-117 of Rep, tag left off): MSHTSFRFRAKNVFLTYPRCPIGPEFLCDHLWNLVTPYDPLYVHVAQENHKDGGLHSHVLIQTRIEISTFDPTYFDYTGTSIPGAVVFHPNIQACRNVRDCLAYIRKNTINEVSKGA
# Procedure: as §1
# [7] = test system: T7, Rep nickase domain of porcine circovirus 2
# T7 sequence (residues 2-116 of Rep, tag left off): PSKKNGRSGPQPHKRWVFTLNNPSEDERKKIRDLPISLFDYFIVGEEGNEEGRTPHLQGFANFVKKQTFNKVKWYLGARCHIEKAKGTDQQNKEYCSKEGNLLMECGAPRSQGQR
# Procedure: as §1
# [8] = test system: T8, Rep nickase domain of tomato golden mosaic virus
# T8 sequence (residues 1-124 of Rep, tag left off): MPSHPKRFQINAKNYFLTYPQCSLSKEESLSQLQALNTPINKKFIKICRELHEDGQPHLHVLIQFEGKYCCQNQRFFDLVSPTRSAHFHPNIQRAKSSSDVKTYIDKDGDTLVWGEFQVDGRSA
# Procedure: as §1
# [9] = test system: T9, Rep nickase domain of tomato yellow leaf curl virus
# T9 sequence (residues 1-136 of Rep, tag left off): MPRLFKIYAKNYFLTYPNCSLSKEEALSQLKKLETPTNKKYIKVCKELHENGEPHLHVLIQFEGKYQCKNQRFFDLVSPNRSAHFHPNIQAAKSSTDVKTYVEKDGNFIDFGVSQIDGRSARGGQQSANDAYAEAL
# Procedure: as §1
# [10] = test system: T10, Rep nickase domain of wheat dwarf virus
# T10 sequence (residues 1-137 of Rep, tag left off): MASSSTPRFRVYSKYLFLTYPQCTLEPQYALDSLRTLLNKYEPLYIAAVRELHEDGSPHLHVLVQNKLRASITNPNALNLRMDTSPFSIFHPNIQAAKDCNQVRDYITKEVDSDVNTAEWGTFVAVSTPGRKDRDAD
# Procedure: as §1
Sequence,uncleaved DNA left (log2) [1],uncleaved DNA left (log2) [2],uncleaved DNA left (log2) [3],uncleaved DNA left (log2) [4],uncleaved DNA left (log2) [5],uncleaved DNA left (log2) [6],uncleaved DNA left (log2) [7],uncleaved DNA left (log2) [8],uncleaved DNA left (log2) [9],uncleaved DNA left (log2) [10]
GATAGTC,0.149,0.0176,0.309,0.559,0.085,0.367,0.151,0.0754,0.14,0.0305
AAGTATA,-0.0379,-0.0982,-0.126,-1.81,-0.24,0.322,-3.2,0.0443,-0.0661,0.0578
GTCGTCA,0.00436,0.0225,0.299,0.788,-0.00323,1.58,0.0694,-0.0494,-0.00166,-0.013
ACACAAA,0.0767,0.123,-0.0489,-0.0839,0.241,-0.678,0.266,0.151,-0.0304,0.0907
CTTCTCT,0.0335,0.0407,-0.154,-1.9,-0.0333,-0.67,-0.112,0.00774,0.0107,0.0954
TTGAATA,-0.104,-0.0184,0.127,-0.244,0.0262,0.603,-0.0669,0.0291,0.0174,0.052
GGAATAA,-0.00314,0.000128,0.573,1.37,-0.00129,1.86,0.126,-0.042,0.0151,0.105
AGCTTGA,-0.0822,0.0306,-0.0131,0.722,-0.0204,0.6,-0.168,0.0038,-0.101,0.032
CGGCAGA,0.0882,0.0274,0.173,0.664,0.133,0.658,0.21,-0.0657,-0.0678,0.108
CAACTTG,-0.0033,-0.0771,-0.483,-1.63,0.0875,-0.956,-0.0388,-0.0755,-0.057,-0.0106
GAGTAGG,0.244,0.124,0.396,0.845,0.123,0.759,0.00886,0.298,0.203,0.233
AGGCCAG,-0.0395,0.0194,-0.224,-0.139,0.0156,-0.425,0.0794,-0.0163,-0.0534,-0.0647
CGCTCAA,-0.0734,-0.0596,-0.0145,-0.105,-0.0286,-0.494,-0.0729,-0.0727,-0.0224,-0.000677
CTAGCCA,-0.0459,0.108,-0.15,-0.954,-0.0125,-0.545,0.00555,-0.132,0.0917,0.0335
CGACAAG,0.0846,0.204,-0.127,0.363,0.0196,0.21,0.0562,0.102,0.046,0.119
TTCGCTT,-0.208,-0.0384,-0.194,-1.77,-0.0597,-0.8,-0.411,-0.139,0.0117,-0.108
CGGAGCT,0.0717,0.16,0.217,0.277,0.11,0.227,0.0465,0.102,-0.0125,0.109
GAGTTGT,-0.153,-0.568,0.172,-0.171,-0.22,0.0795,-2.94,0.034,-0.00796,0.0723
GCCTGAG,0.03,0.0762,-0.47,-0.287,-0.0738,-0.759,0.097,-0.0752,0.116,-0.151
CAATCGT,-0.247,0.0931,-3.4,-2.9,0.101,-2.4,-2.12,-1.75,0.067,-1.72
CTACAGC,-0.152,-0.119,-0.45,-1.2,-0.11,-0.949,-0.0108,-0.115,-0.0639,0.00183
AGTAGCT,0.127,-0.0102,-0.284,-0.62,-0.0752,-0.72,-3.07,-0.0825,-0.0235,-0.0235
TATCGAC,0.058,0.0639,-0.00821,0.121,-0.0235,-0.00529,0.0652,0.0644,0.00218,0.0424
CGCGTCT,-0.0459,-0.133,-0.26,-0.947,0.00874,-0.314,-0.12,-0.156,-0.138,-0.143
TACCCGG,-0.00926,0.135,0.469,1.28,-0.0831,1.64,-0.00556,0.0641,-0.0111,0.0834
GGGGACC,0.0497,0.106,0.714,1.85,0.0378,2.17,0.191,-0.0277,0.0634,0.0985
TTTCGCT,-0.037,0.0712,-0.383,-1.52,-0.0543,-1.19,-0.255,-0.092,0.0327,-0.128
GACAGAA,-0.0398,0.0249,0.427,0.843,-0.0182,0.636,0.063,0.106,-0.0301,0.0751
ACGGCTG,-0.0661,-0.07,-0.00665,0.665,-0.0177,1.39,0.103,0.119,-0.0196,-0.0552
TGGTATC,-0.0126,0.0479,0.461,1.36,-0.0316,1.64,-0.0296,0.0468,0.0703,-0.0178
